Here are results for 62 compounds from PubChem BioAssay AID485344 (National Center for Advancing Translational Sciences (NCATS), 2010).

In all, about 340,000 compounds went through this assay and about 6,900 (2%) were called active. Cut-off read from the data, not from the text of the source: active = inhibition above about 30%; inactive = below that, where a call was filed. This is a selection; strong and weak results do not stand in their true shares. Where no call is shown, the source filed none.

Chain of UniProt P14416 (P14416 whole entry, looked up): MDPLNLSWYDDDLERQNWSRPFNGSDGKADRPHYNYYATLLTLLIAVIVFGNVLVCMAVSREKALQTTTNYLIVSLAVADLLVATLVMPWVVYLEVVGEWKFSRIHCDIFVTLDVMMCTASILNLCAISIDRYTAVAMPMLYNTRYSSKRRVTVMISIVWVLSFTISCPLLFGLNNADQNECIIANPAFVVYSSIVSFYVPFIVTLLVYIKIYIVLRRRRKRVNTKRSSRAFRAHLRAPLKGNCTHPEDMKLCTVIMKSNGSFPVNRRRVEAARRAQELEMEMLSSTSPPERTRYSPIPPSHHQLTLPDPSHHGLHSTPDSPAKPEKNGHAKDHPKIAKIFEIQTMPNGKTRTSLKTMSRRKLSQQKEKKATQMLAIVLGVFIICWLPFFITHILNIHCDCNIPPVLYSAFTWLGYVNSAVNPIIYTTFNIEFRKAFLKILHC

In the test the target is D(2) dopamine receptor (Homo sapiens) (UniProt P14416). The experiment in a line: HTS Assay for Allosteric Antagonists of the Human D2 Dopamine Receptor: Primary Screen for Antagonists. Note: 0% is about no effect. Particulars: HEK293 TREx D2 cells, calcium flux, dopamine EC80; at 10 µM; stronger effect = higher value. The method, boiled down:
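Calcium mobilization kinetics were recorded at 1 s intervals in tetracycline-induced HEK293 T-REx D2 cells, first for 180 s after compound addition and then 180 s after EC80 dopamine.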
In general terms: Calcium assays in cells follow changes in intracellular calcium, usually with a dye or a luminescent sensor.
Regarding `CCC(C(=O)NC1CCC(C)CC1)n1nc(C)c2sc3ccccc3c2c1=O` (configuration not stated), the inhibition (commonly the change of the read-out against control, counted positive when it falls) is -10.3%. With `CCc1ccc(CNC(=O)c2cc3c(=O)n(Cc4cccs4)ccc3nc2C)cc1`, the inhibition turned out to be 14.7%. Take `COc1ccccc1CNC(=O)C1CCN(S(=O)(=O)c2ccc3c(c2)CCCN3C(C)=O)CC1`: the inhibition amounted to 4.98%. For the compound `CC(C)c1ccc(NC(=O)CSc2nc3ccccc3nc2Cc2ccccc2)cc1`, the inhibition was -6.72%. `CCc1ccccc1NC(=O)N1CC(C)Sc2ccccc21` (configuration not stated): the inhibition is -2.94%. With `CC(=O)c1ccccc1OCC(O)Cn1c(CO)nc2ccccc21` (configuration not stated), the inhibition is -14.9%. With `O=C(Nc1ccc(Br)cc1F)N1CC=C(c2c[nH]c3ccccc23)CC1`, the inhibition was -21.4%. `CC(=O)c1ccc(NC(=O)c2nc(-c3ccccc3)n(-c3ccccc3)n2)cc1`: the inhibition turned out to be 9.92%. As for `CCCc1nn2c(=O)cc(COC(=O)c3ccc(NC(=O)C4CCCCC4)cc3)nc2s1`, the figure is 3.2%. As for `CC(C)Cc1nn2c(=O)cc(COC(=O)c3ccccc3NC(=O)C3CCCCC3)nc2s1`, the figure is -8.71%; as for `Fc1ccc(-c2csc(=S)[nH]2)cc1`, active: 31%; as for `Cc1ccc(S(=O)(=O)NCc2nc3cccnc3n2Cc2ccccc2Cl)c(C)c1`, -16.6%.

`CCc1nnc2c(Nc3ccc(N(CC)CC)cc3C)nc3ccccc3n12`: the inhibition was -8.27%.

In the case of `O=C(NCCO)C1(c2ccc(Cl)cc2)CCCC1`, the inhibition was active: 32.2%. As for `COc1ccc(C)cc1NC(=O)c1cn(C)c(=O)c2cc(OC)c(OC)cc12`, the figure is -0.172%; as for `COc1cccc(NS(=O)(=O)c2ccc3c(c2)N(C)C(=O)CC(=O)N3C)c1`, -8.69%. For the compound `COc1ccc(-c2nc(Cn3c(SCc4cccc(C(F)(F)F)c4)nc4cccnc43)c(C)o2)cc1OC`, the inhibition is -20.2%.

Consider `COc1ccc(C(=O)c2sc3nc(-c4ccc(F)cc4)ccc3c2N)cc1`, for which the inhibition is 8.72%.

As for `Cc1oc2ncn(C)c(=O)c2c1C(=O)NCc1ccc(Cl)cc1`, the inhibition was -2.16%. In the case of `Cn1c(Nc2ccc(Cl)cc2)cc(=O)n(C)c1=O`, the inhibition is 6.05%.

Consider `CC1=C(C(=O)Nc2ccc(C)cc2C)C(c2ccc(O)cc2)n2nc(SCC(=O)c3ccc(C)cc3)nc2N1` (configuration not stated), for which the inhibition is 11.8%.

With `COc1ccc(-c2nn3c(=O)cc(CN4CCN(S(=O)(=O)c5ccc(C)cc5)CC4)nc3s2)cc1`, the inhibition is -22.1%.

Consider `CCCNCC1C(Oc2ccc(Cl)cc2)C(=O)N1c1ccccc1C` (configuration not stated), for which the inhibition is active: 50.9%. In the case of `COc1ccc(C(=O)Nc2ccc(S(=O)(=O)N(Cc3ccccc3)c3ccccc3)cc2)cc1`, the inhibition was -2.37%. In the case of `COc1ccc(OC)c(CNC(=O)C2CCCCN2S(=O)(=O)c2ccc(F)cc2)c1` (configuration not stated), the inhibition was found to be 2.97%. Turning to `COc1ccc(CNC(=O)CN2C(=O)CCn3nc(-c4ccccc4)cc32)c(OC)c1`, the inhibition was -3.4%. For the compound `COc1ccc(S(=O)(=O)Nc2cc3c(C(=O)OC(C)C)c(C)oc3c3ccccc23)cc1`, the inhibition is -3.44%. Regarding `COc1ccc(N2C(=O)Cc3cc(OC)c(OC)cc3C2c2ccc(F)cc2)cc1` (configuration not stated), the inhibition was -3.11%.

With `Cc1cccc(Cn2cc(C(=O)Nc3cc(F)ccc3F)ccc2=O)c1`, the inhibition was -21.7%. With `COc1ccc(C(CCN2CCCC(C)C2)c2c(OC)cc(OC)c3c2OC(=O)CC3c2cc(OC)c(OC)c(OC)c2)cc1` (configuration not stated), the inhibition is active: 52%. Take `COc1ccc(-c2ccc(CCC(=O)O)n2-c2ccccc2O)cc1`: the inhibition was 3.97%. As to `COc1ccc(NC(=O)CCc2nc3c(C)nn(-c4ccc(C)cc4)c3n(C)c2=O)cc1`, the inhibition amounted to 1.24%.

Turning to `Cc1ccc(NC(=O)C2CCN(S(=O)(=O)c3c(C)noc3/C=C/c3cccs3)CC2)cc1F`, the inhibition was -12.7%.

For the compound `CCOC(=O)C1=C(CN2CCN(C(=O)c3ccco3)CC2)NC(=O)NC1c1ccc(C)cc1` (configuration not stated), the inhibition is active: 36.7%. `CCCS(=O)(=O)c1c(S(=O)(=O)CCC)c2cc(CC)ccn2c1C(=O)c1ccc(Cl)cc1`: the inhibition was found to be 17.4%.

As to `O=C(CSc1nnc(-c2cccnc2)n1Cc1ccccc1)NCc1ccccc1`, the inhibition was active: 34.5%. As for `COc1ccc(Cl)cc1CNCCSc1nnnn1-c1ccccc1`, the figure is 6.63%. `Cc1ccc(C(=O)O)cc1NC(=O)c1cccs1`: the inhibition was active: 43.8%.

On to `COc1ccc(C2NC(=O)N(C)C3=C2C(=O)N(c2cccc(C(=O)O)c2)C3)cc1` (configuration not stated), for which the inhibition was 25%. `O[Si](CCCN1CCCCC1)(c1ccc(F)cc1)C1CCCCC1` (configuration not stated): the inhibition was active: 124%. Regarding `COc1ccccc1-c1cc(C(=O)Nc2cc(OC)c(OC)c(OC)c2)no1`, the inhibition came to 16.4%. `CCN(CC)CCCNC(=O)c1nn(C)c2c1CSc1ccccc1-2`: the inhibition stood at 25.4%.

For `CCN(CC)c1ccc(C(=O)NCc2ccc3c(c2)CCN3C(=O)c2ccc(F)cc2)cc1`, the inhibition worked out at 12.6%. On to `Cc1ccc(-n2nc(C)c3c(C(=O)NCCc4ccccc4)cc(C)nc32)cc1`, for which the inhibition was determined as 9.96%. `Cc1ccc(CNC(=O)c2ccc3c(c2)nc2n3CCOC2)cc1`: the inhibition was 0.927%.

For `COc1ccc(Cl)cc1N(C)C(=O)c1cc2c(=O)oc3ccc(C)cc3c2s1`, the inhibition was 14.7%. For the compound `COc1ccc(Cc2nc3c4cnn(-c5ccccc5F)c4ncn3n2)cc1`, the inhibition was determined as 15.8%. As for `CCc1ccccc1NC(=O)CN1CCCN(Cc2cc(C)ccc2C)S1(=O)=O`, the figure is 12.5%; as for `Cc1cc(=O)oc2cc(OC(=O)c3cncc(Br)c3)ccc12`, active: 30.8%. On to `CCCCNC(=O)c1cc(-c2ccc(OC)cc2)nc2n[nH]c(-c3cccc([N+](=O)[O-])c3)c12`, for which the inhibition is -18.1%. `CCc1ccc(NC(=O)CCNS(=O)(=O)c2ccc3c(c2)oc(=O)n3C)cc1`: the inhibition was -5.33%. For `Cc1ccnc2c1ccc1c(C)ccnc12`, the inhibition is active: 43.2%. Turning to `CCOC(=O)c1ccccc1NC(=O)CN1CCCN(Cc2cccc(Cl)c2)S1(=O)=O`, the inhibition was -10.3%. As for `CCOc1ccccc1NC(=O)CCNS(=O)(=O)c1cccc2nonc12`, the figure is 11.3%; as for `CC(C)Oc1ccc(C(=O)NCC(c2ccc(N(C)C)cc2)N2CCCC2)cc1` (configuration not stated), 2.5%. As for `Cc1ccc(C)c(NC(=O)Cn2cc(C(=O)c3cccs3)c3ccccc32)c1`, the figure is 14.1%; as for `COc1cc(C(=O)Nc2ccc3c(c2)N(C2CCCC2)C(=O)c2ccccc2S3)cc(OC)c1OC`, 4.5%; as for `CCOc1ccccc1NC(=O)C1CCCN1S(=O)(=O)c1ccc2c(c1)C(C)(C)C(=O)N2C` (configuration not stated), -1.46%. Regarding `Cc1ccc(NS(=O)(=O)c2cc(-c3cnc(C4CC4)o3)ccc2C)cc1Cl`, the inhibition is -8.85%. With `Nc1c(C(=O)Nc2ccccc2F)sc2nc3c(cc12)CCCCCC3`, the inhibition came to 11%. For `COc1ccc(NC(=O)N2CCOc3ccc(Cl)cc32)cc1`, the inhibition is -22.3%.

Consider `Cc1ccc(C(=O)COC(=O)c2cccc(NC(=O)c3ccc(Cl)cc3Cl)c2)cc1`, for which the inhibition is 19.9%.
